Hit rate of the full screen: of about 110,000 compounds, about 230 (0.21%) showed an effect of 50% or more. The list shows a part of the results.
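Note: 30 min substrate incubation versus DMSO and 10 µM JCP410 controls.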

In this test the target is DPAP1 (Plasmodium falciparum, UniProt Q8IIJ9). Put plainly: primary screen, percent inhibition; read by cleavage of a fluorogenic dipeptide substrate; higher = more effect of the substance. More on the design: species or system P. falciparum D10 trophozoite lysates; single well.
Sequence of DPAP1 (Q8IIJ9 whole entry, looked up): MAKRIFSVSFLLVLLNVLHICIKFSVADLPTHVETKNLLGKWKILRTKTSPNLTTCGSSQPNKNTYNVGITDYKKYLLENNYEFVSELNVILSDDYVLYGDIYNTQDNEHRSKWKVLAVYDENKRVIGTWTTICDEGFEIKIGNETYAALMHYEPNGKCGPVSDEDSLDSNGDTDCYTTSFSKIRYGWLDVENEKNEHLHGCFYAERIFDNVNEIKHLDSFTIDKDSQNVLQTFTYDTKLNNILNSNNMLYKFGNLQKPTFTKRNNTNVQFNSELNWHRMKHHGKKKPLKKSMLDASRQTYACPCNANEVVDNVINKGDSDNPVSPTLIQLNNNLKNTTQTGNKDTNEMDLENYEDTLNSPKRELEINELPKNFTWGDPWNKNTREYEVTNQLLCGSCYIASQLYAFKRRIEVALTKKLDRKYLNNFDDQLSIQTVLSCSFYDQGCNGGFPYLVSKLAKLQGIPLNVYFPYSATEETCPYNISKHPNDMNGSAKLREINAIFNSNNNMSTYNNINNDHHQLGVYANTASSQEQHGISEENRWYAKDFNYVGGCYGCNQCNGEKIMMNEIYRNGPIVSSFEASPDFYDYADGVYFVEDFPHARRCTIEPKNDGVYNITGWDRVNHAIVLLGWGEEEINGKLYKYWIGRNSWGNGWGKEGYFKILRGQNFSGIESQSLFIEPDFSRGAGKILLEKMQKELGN
Regarding `Cc1ccc(C)c(OCC(=O)Nc2nc(-c3ccccc3)cs2)c1C`, the “% Inhibition @ 10 uM” value came out at 5.23%.

On to `CCc1[nH]nc2c1C(c1ccc(OC(C)C)cc1)C(C#N)=C(N)O2` (stereo not drawn), for which the “% Inhibition @ 10 uM” value is recorded as -2.16%.

For `C=CCc1cc(/C=C2/SC(=O)N(C(C)C)C2=O)cc(OC)c1O`, the “% Inhibition @ 10 uM” value is given as 1.86%.

With `CC(=O)c1c(C)nn2c3ccccc3n(C)c12`, the “% Inhibition @ 10 uM” value was -5.21%.

For `O=C(NC1(C(F)(F)F)NC(=O)N(c2ccc(OC(F)(F)F)cc2)C1=O)c1ccncc1` (stereo not drawn), the “% Inhibition @ 10 uM” value is -3.72%.

In the case of `CCC1CCCCN1C(=O)C1CCN(C(=O)c2c(C)nn(-c3ccccc3)c2-n2cccc2)CC1` (stereo not drawn), the “% Inhibition @ 10 uM” value is listed as -7.1%.

In the case of `Cc1cccc(C(=O)NCCN2CCCC2)c1`, the “% Inhibition @ 10 uM” value is given as -0.519%.

Take `CC1=C(C(=O)Nc2ccc(Cl)cn2)C2(CCCCCC2)OC1=O`: the “% Inhibition @ 10 uM” value is given as -0.285%.

Take `CC(C)N(CC(O)COc1cccc2ccccc12)C(=O)c1cccc2ccccc12` (stereo not drawn): the “% Inhibition @ 10 uM” value turned out to be 1.8%.

Turning to `CN1CCC(N2CCCCCCC2)CC1`, the “% Inhibition @ 10 uM” value is given as -7.93%.

In the case of `CCCc1nnc(NC(=O)C(CC)Sc2nnc3c(n2)[nH]c2ccccc23)s1` (stereo not drawn), the “% Inhibition @ 10 uM” value is reported as -5.51%.

For the compound `CC(=O)NS(=O)(=O)c1ccc(NC(=O)c2cccc(Cl)c2)cc1`, the “% Inhibition @ 10 uM” value is on record as -2.29%.

In the case of `COC(=O)C1=CN(C23CC4CC(CC(C4)C2)C3)C=C(C(=O)OC)C1c1ccc(Cl)s1`, the “% Inhibition @ 10 uM” value stood at 0.147%.

As to `COc1cc(C2=NOC(C(=O)N3CCOCC3)C2)cc(OC)c1OC` (stereo not drawn), the “% Inhibition @ 10 uM” value is -0.431%.

For the compound `CCCNC(=O)C1=C(C)C(=O)OC12CCN(C(C)=O)CC2`, the “% Inhibition @ 10 uM” value was found to be 1.08%.

Consider `COc1ccc(OC)c(NC(=O)CCc2ccccc2)c1`, for which the “% Inhibition @ 10 uM” value stood at 5.42%.

`CC1CCCCN1CCNc1ncnc2onc(-c3ccc(Cl)cc3)c12` (stereo not drawn): the “% Inhibition @ 10 uM” value is -3.95%.

On to `N#C/C(=C\Nc1cc(Cl)ccc1O)C(=O)NC(=O)Cc1ccccc1`, for which the “% Inhibition @ 10 uM” value was -2.87%.

Consider `Cc1sc2c(c1C)CSC(C(=O)NCc1ccc3c(c1)OCO3)=C2`, for which the “% Inhibition @ 10 uM” value was determined as 11.9%.

Take `O=C(Nc1ccc(C(F)(F)F)cc1)C1CCN(S(=O)(=O)c2cc(Cl)ccc2Cl)CC1`: the “% Inhibition @ 10 uM” value is recorded as -9.08%.

In the case of `COc1cc(C2=NOC(C(=O)NCc3cccnc3)C2)cc(OC)c1OC` (stereo not drawn), the “% Inhibition @ 10 uM” value was -0.431%.

Consider `Cc1cc(C)nc(NS(=O)(=O)c2ccc(NC(=O)Cc3ccccc3)cc2)n1`, for which the “% Inhibition @ 10 uM” value came to 11.4%.

For `COc1ccc(-c2cs/c(=N\c3ccc(OC(F)F)cc3)n2CCO)cc1`, the “% Inhibition @ 10 uM” value came out at 0.993%.

`CC1=CC2=NC(=O)/C(=C/c3ccc(OCc4cc(=O)n5nc(C)sc5n4)cc3)C(=N)N2O1`: the “% Inhibition @ 10 uM” value is reported as -9.6%.

For `CCOC(=O)N1CCC2(CC1)C(C#N)=C(N)Oc1[nH]nc(C)c12`, the “% Inhibition @ 10 uM” value is reported as 9.39%.

`COC(=O)c1nc2n(n1)C(c1cc(OC)ccc1OC)/C(=C(\O)OC1CCCCC1)C(C)=N2` (stereo not drawn): the “% Inhibition @ 10 uM” value is listed as 2.17%.

As to `Cc1nc2c(C(=O)N(C)Cc3ccco3)cnn2c(O)c1Cc1ccccc1F`, the “% Inhibition @ 10 uM” value turned out to be 1.62%.

Consider `C=CCSc1ncc(Cl)c(C(=O)Nc2nc3ccc(OC)cc3s2)n1`, for which the “% Inhibition @ 10 uM” value is on record as -0.946%.

For `Nc1c(C(=O)Nc2cc(F)ccc2F)sc2nc(-c3cccs3)ccc12`, the “% Inhibition @ 10 uM” value is on record as -1.02%.

Take `CCCCCC(=O)Nc1ccc(CN2CCOCC2)cc1`: the “% Inhibition @ 10 uM” value turned out to be 0.851%.

With `CC(=O)c1c(N)nc(C)nc1-c1ccccc1`, the “% Inhibition @ 10 uM” value was -14.6%.

In the case of `O=C1S/C(=C/c2cccnc2)C(=O)N1Cc1c(F)cccc1Cl`, the “% Inhibition @ 10 uM” value was -6.44%.

Regarding `COc1cc(C)ccc1OCCSc1nc(-c2ccc(C)cc2)nc2cc(=O)[nH]n12`, the “% Inhibition @ 10 uM” value is reported as -5.33%.

Turning to `O=C1C(=O)N(C2CCCCC2)C(=O)N1C1CCCCC1`, the “% Inhibition @ 10 uM” value was found to be 2.38%.

Turning to `O=C(O)c1c2c(nc3ccc(Br)cc13)CCCC2`, the “% Inhibition @ 10 uM” value turned out to be 5.01%.

Regarding `Cc1oc2ncn3c(C)nnc3c2c1C(=O)NC1CC1`, the “% Inhibition @ 10 uM” value was found to be 1.08%.

`CNC(=O)CCCc1nnc2n(C)c(=O)c3sccc3n12`: the “% Inhibition @ 10 uM” value is given as -1.35%.

Consider `O=C(NCCC1=CCCCC1)C1CCN(S(=O)(=O)N2CCOCC2)CC1`, for which the “% Inhibition @ 10 uM” value amounted to 0.387%.

On to `Cc1ccccc1Cc1c(C)nc2c(C(=O)N3CCN(c4ccccn4)CC3)cnn2c1C`, for which the “% Inhibition @ 10 uM” value is 1.16%.

With `O=C(CN(c1ccc(F)cc1)S(=O)(=O)c1ccccc1)NC1CCCC1`, the “% Inhibition @ 10 uM” value is -9.66%.

Turning to `O=c1c(CN2CCC(O)CC2)coc2ccc(Cl)cc12`, the “% Inhibition @ 10 uM” value is recorded as -2.95%.

`COc1cc(/C=C2\SC(Nc3ccc(F)cc3)=NC2=O)ccc1O`: the “% Inhibition @ 10 uM” value is on record as 0.59%.

`COc1ccc(OC)c(S(=O)(=O)N2CCCC2C(=O)NC23CC4CC(CC(C4)C2)C3)c1` (stereo not drawn): the “% Inhibition @ 10 uM” value is 10.4%.

On to `CCc1ccc(-n2nc(C)c3c(C)cc(=O)n(CC(=O)NC(C)C)c32)cc1`, for which the “% Inhibition @ 10 uM” value amounted to 5.62%.

With `CCCN1C(=O)CN(C2CCCCC2)C(=O)C1c1ccc(OC(C)C)c(OC)c1` (stereo not drawn), the “% Inhibition @ 10 uM” value is on record as 4.47%.

With `CC1(C)CC2(CCO1)OC(=O)CC2C(=O)NCc1ccccc1` (stereo not drawn), the “% Inhibition @ 10 uM” value was -5.15%.

In the case of `C=CCn1c(S)nnc1-c1ccco1`, the “% Inhibition @ 10 uM” value came to 2.7%.

In the case of `CCC(C)N(C(=O)c1cc(Cl)ccc1OC)C(C)CC` (stereo not drawn), the “% Inhibition @ 10 uM” value is recorded as -3.24%.

Take `CN(C)CCN(Cc1ccccc1)Cc1ccc(Cl)c(Cl)c1`: the “% Inhibition @ 10 uM” value is -5.2%.

For the compound `Clc1cccc(OCCN2CCN(c3ccccc3)CC2)c1`, the “% Inhibition @ 10 uM” value is on record as -1.89%.

In the case of `CN1CCN(Cc2nc3c(c(=O)n(C)c(=O)n3C)n2CCCc2ccccc2)CC1`, the “% Inhibition @ 10 uM” value was -5.1%.

Regarding `C=CCn1c(SCC(=O)Nc2cccc(C(C)=O)c2)nc2sc3c(c2c1=O)CCC3`, the “% Inhibition @ 10 uM” value was -4.61%.

As to `OC(CN1CCCC1)Cn1c2ccccc2c2ccccc21` (stereo not drawn), the “% Inhibition @ 10 uM” value is given as -6.06%.

In the case of `COc1cccc2c1cc1c(=O)n(CC(=O)NCCc3ccc(S(N)(=O)=O)cc3)nc(C)n12`, the “% Inhibition @ 10 uM” value is reported as -3.47%.

For the compound `Cc1nn(C(=O)CCC(=O)NCc2cccnc2)c2ccccc12`, the “% Inhibition @ 10 uM” value is reported as 2.07%.

For `O=C(NC(Cc1ccccc1)C(=O)N1CCC2(CC1)OCCO2)C1CCCCC1` (stereo not drawn), the “% Inhibition @ 10 uM” value was -4.06%.

Consider `Cc1ccc2c(c1)C(=O)OC(C(=O)Nc1nccs1)C2` (stereo not drawn), for which the “% Inhibition @ 10 uM” value amounted to 1.91%.

For `Cc1ccc(-c2c(N3CCC(C)CC3)c(=O)c2=O)cc1C`, the “% Inhibition @ 10 uM” value stood at 21.6%.

As for `Oc1ccc(-c2ccccc2)cc1`, the “% Inhibition @ 10 uM” value is recorded as 10.4%.

On to `CCOc1ccc(Cc2c(C)nc(N)nc2O)cc1`, for which the “% Inhibition @ 10 uM” value amounted to 0.0265%.

As for `CCOC(=O)C1=C(C)N=c2s/c(=C/c3ccc(Br)s3)c(=O)n2C1c1cccs1` (stereo not drawn), the “% Inhibition @ 10 uM” value turned out to be 0.685%.

In the case of `Cc1oc(C)c2c(=O)cc(-c3ccc4c(c3)OCO4)cc(OC(=O)c3cccs3)c12`, the “% Inhibition @ 10 uM” value was -4.75%.

On to `CC(C)Oc1ccc(C(=O)Nc2nc3ccccc3s2)cc1`, for which the “% Inhibition @ 10 uM” value turned out to be 0.145%.
